According to US10047091B2, “Ionic liquid, lubricating agent, and magnetic recording medium” (Dexerials Corporation, priority 2012, dated 2018):

Test: TG/DTA thermal analysis
Type: physicochemical
Conditions: air, 30° C. to 600° C., heating rate 10° C./min
Method: The measurement is performed in a temperature range of 30° C. to 600° C. at a heating rate of 10° C./min while introducing air at a flow rate of 200 mL/min using EXSTAR 6000 (manufactured by Seiko Instruments Inc.). As a gas chromatography mass spectrometer, 6890/5975 MSD (manufactured by Agilent Technologies, Inc.) was used. The following measurement conditions are used: column: DB-1 (15 m, diameter: 0.25 mm, membrane thickness: 0.1 μm); injection temperature: 280° C.; column temperature: initial temperature of 40° C., hold for 5 min, heated to 340° C. at the heating rate of 20° C./min, and hold at the same temperature; mass spectrometric unit: 5975MSD; MS detection mode: EI^+; quadrupole temperature: 150° C.; ion source temperature: 300° C.; mass scanning range: m/z 33-700; and calibration: PFTBA.
Ionic liquids obtained from Examples 2, 28, and 29 and Comparative Examples 16 and 17 were subjected to a TG measurement using EXSTAR 6000 (Seiko Instruments Inc.) (Examples 30 and 31, and Comparative Examples 18 and 19). Z-DOL was also subjected to the TG measurement (Comparative Example 20). Weight loss was measured while purging air in a temperature range of 30° C. to 600° C. at a heating rate of 10° C./min.
The TG/DTA measurement was performed in a temperature range of 30° C. to 600° C. at a heating rate of 10° C./min while introducing air at a flow rate of 200 mL/min using EXSTAR 6000 (manufactured by Seiko Instruments Inc.). As a gas chromatography mass spectrometer, 6890/5975 MSD (manufactured by Agilent Technologies, Inc.) was used. The following measurement conditions were used: column: DB-1 (15 m, diameter: 0.25 mm, membrane thickness: 0.1 μm); injection temperature: 280° C.; column temperature: initial temperature of 40° C., hold for 5 min, heated to 340° C. at the heating rate of 20° C./min, and hold at the same temperature; mass spectrometric unit: 5975MSD; MS detection mode: EI^+; quadrupole temperature: 150° C.; ion source temperature: 300° C.; mass scanning range: m/z 33-700; and calibration: PFTBA.

Row | SMILES | Exothermic peak temperature in DTA measurement (first exothermic peak) [°C] | Exothermic peak temperature in DTA measurement (second exothermic peak) [°C]
1 | CCCCCCCCCCCCCCCCCCC1CCCCN2CCCN=C12.O=S(=O)(O)C(F)(F)C(F)(F)C(F)(F)C(F)(F)C(F)(F)C(F)(F)C(F)(F)C(F)(F)F (stereo not shown) [Ionic liquid 15, 6-n-octadecyl-1,8-diazabicyclo[5.4.0]-7-undecene (C18-DBU) pentadecafluorooctane sulfonic acid salt] | 434 | 468
2 | CCCCCCCCCCCCCCCCCCN1CCCN2CCCN=C12.O=S(=O)(O)C(F)(F)C(F)(F)C(F)(F)C(F)(F)C(F)(F)C(F)(F)C(F)(F)C(F)(F)F [Ionic liquid 17, 7-n-octadecyl-1,5,7-triazabicyclo[4.4.0]-5-decene (C18-TBD) pentadecafluorooctane sulfonic acid salt] | 412 | 444

Some values that stand alone complete this part of the results.
